For 31 molecules, binding signal results are on record in PMC9911399, “Two distinct binding modes provide the RNA-binding protein RbFox with extraordinary sequence specificity”.

Positions count from the first letter of the chain named. Some of the results follow.

T1: RBFOX1 RRM RbFoxmut (Fox-RRM*) (Homo sapiens, UniProt Q9NWB1 109-208, R118D;E147R;N151S;E152T)
T1 sequence: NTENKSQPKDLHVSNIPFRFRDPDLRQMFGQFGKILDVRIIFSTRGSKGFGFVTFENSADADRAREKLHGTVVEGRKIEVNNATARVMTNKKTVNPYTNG

B1: CUGACUG (DNA:RNA)
RNA: GGGAGACCGGAAUUCAGAUUGUCCCUGACUGUUAAAUCCCGUCGUAGCCACCA
DNA 1: CAATCTGAATTCCGGTCTCCC
DNA 2: TGGTGGCTACGACGGGATT
B2: AAUUGGG (DNA:RNA)
RNA: B1 RNA with C25A, U26A, G27U, A28U, C29G, U30G
DNA 1: CAATCTGAATTCCGGTCTCCC
DNA 2: TGGTGGCTACGACGGGATT
B3: CAAAAGG (DNA:RNA)
RNA: B1 RNA with U26A, G27A, C29A, U30G
DNA 1: CAATCTGAATTCCGGTCTCCC
DNA 2: TGGTGGCTACGACGGGATT
B4: GCAAAUC (DNA:RNA)
RNA: B1 RNA with C25G, U26C, G27A, C29A, G31C
DNA 1: CAATCTGAATTCCGGTCTCCC
DNA 2: TGGTGGCTACGACGGGATT
B5: GUAUGGC (DNA:RNA)
RNA: B1 RNA with C25G, G27A, A28U, C29G, U30G, G31C
DNA 1: CAATCTGAATTCCGGTCTCCC
DNA 2: TGGTGGCTACGACGGGATT
B6: CCUGGUG (DNA:RNA)
RNA: B1 RNA with U26C, G27U, A28G, C29G
DNA 1: CAATCTGAATTCCGGTCTCCC
DNA 2: TGGTGGCTACGACGGGATT
B7: CCCAGCU (DNA:RNA)
RNA: B1 RNA with U26C, G27C, C29G, U30C, G31U
DNA 1: CAATCTGAATTCCGGTCTCCC
DNA 2: TGGTGGCTACGACGGGATT
B8: CAUUAUC (DNA:RNA)
RNA: B1 RNA with U26A, G27U, A28U, C29A, G31C
DNA 1: CAATCTGAATTCCGGTCTCCC
DNA 2: TGGTGGCTACGACGGGATT
B9: GAUAAGU (DNA:RNA)
RNA: B1 RNA with C25G, U26A, G27U, C29A, U30G, G31U
DNA 1: CAATCTGAATTCCGGTCTCCC
DNA 2: TGGTGGCTACGACGGGATT
B10: AUAACUA (DNA:RNA)
RNA: B1 RNA with C25A, G27A, G31A
DNA 1: CAATCTGAATTCCGGTCTCCC
DNA 2: TGGTGGCTACGACGGGATT
B11: CCAGGUG (DNA:RNA)
RNA: B1 RNA with U26C, G27A, A28G, C29G
DNA 1: CAATCTGAATTCCGGTCTCCC
DNA 2: TGGTGGCTACGACGGGATT
B12: CGGCGUG (DNA:RNA)
RNA: B1 RNA with U26G, A28C, C29G
DNA 1: CAATCTGAATTCCGGTCTCCC
DNA 2: TGGTGGCTACGACGGGATT
B13: GUCAGGG (DNA:RNA)
RNA: B1 RNA with C25G, G27C, C29G, U30G
DNA 1: CAATCTGAATTCCGGTCTCCC
DNA 2: TGGTGGCTACGACGGGATT
B14: GCAUUAC (DNA:RNA)
RNA: GGGAGACCGGAAUUCAGAUUGUCCGCAUUACUUAAAUCCCGUCGUAGCCACCA
DNA 1: CAATCTGAATTCCGGTCTCCC
DNA 2: TGGTGGCTACGACGGGATT
B15: AAAAUCC (DNA:RNA)
RNA: B14 RNA with G25A, C26A, U28A, A30C
DNA 1: CAATCTGAATTCCGGTCTCCC
DNA 2: TGGTGGCTACGACGGGATT
B16: GCCGAGU (DNA:RNA)
RNA: B14 RNA with A27C, U28G, U29A, A30G, C31U
DNA 1: CAATCTGAATTCCGGTCTCCC
DNA 2: TGGTGGCTACGACGGGATT
B17: GCAUAAG (DNA:RNA)
RNA: B14 RNA with U29A, C31G
DNA 1: CAATCTGAATTCCGGTCTCCC
DNA 2: TGGTGGCTACGACGGGATT
B18: UGCUCGU (DNA:RNA)
RNA: B1 RNA with C25U, U26G, G27C, A28U, U30G, G31U
DNA 1: CAATCTGAATTCCGGTCTCCC
DNA 2: TGGTGGCTACGACGGGATT
B19: GGGUCAU (DNA:RNA)
RNA: B14 RNA with C26G, A27G, U29C, C31U
DNA 1: CAATCTGAATTCCGGTCTCCC
DNA 2: TGGTGGCTACGACGGGATT
B20: AAUGGGG (DNA:RNA)
RNA: B1 RNA with C25A, U26A, G27U, A28G, C29G, U30G
DNA 1: CAATCTGAATTCCGGTCTCCC
DNA 2: TGGTGGCTACGACGGGATT
B21: CUACAGA (DNA:RNA)
RNA: B1 RNA with G27A, A28C, C29A, U30G, G31A
DNA 1: CAATCTGAATTCCGGTCTCCC
DNA 2: TGGTGGCTACGACGGGATT
B22: UAUAGCA (DNA:RNA)
RNA: B1 RNA with C25U, U26A, G27U, C29G, U30C, G31A
DNA 1: CAATCTGAATTCCGGTCTCCC
DNA 2: TGGTGGCTACGACGGGATT
B23: UCAAAUU (DNA:RNA)
RNA: B1 RNA with C25U, U26C, G27A, C29A, G31U
DNA 1: CAATCTGAATTCCGGTCTCCC
DNA 2: TGGTGGCTACGACGGGATT
B24: CAUCUCG (DNA:RNA)
RNA: B1 RNA with U26A, G27U, A28C, C29U, U30C
DNA 1: CAATCTGAATTCCGGTCTCCC
DNA 2: TGGTGGCTACGACGGGATT
B25: GUAGUAC (DNA:RNA)
RNA: B14 RNA with C26U, U28G
DNA 1: CAATCTGAATTCCGGTCTCCC
DNA 2: TGGTGGCTACGACGGGATT
B26: UCUAUCC (DNA:RNA)
RNA: B14 RNA with G25U, A27U, U28A, A30C
DNA 1: CAATCTGAATTCCGGTCTCCC
DNA 2: TGGTGGCTACGACGGGATT
B27: AGCCAAC (DNA:RNA)
RNA: B14 RNA with G25A, C26G, A27C, U28C, U29A
DNA 1: CAATCTGAATTCCGGTCTCCC
DNA 2: TGGTGGCTACGACGGGATT
B28: UUGGGCC (DNA:RNA)
RNA: B1 RNA with C25U, A28G, C29G, U30C, G31C
DNA 1: CAATCTGAATTCCGGTCTCCC
DNA 2: TGGTGGCTACGACGGGATT
B29: AAUCCCA (DNA:RNA)
RNA: B1 RNA with C25A, U26A, G27U, A28C, U30C, G31A
DNA 1: CAATCTGAATTCCGGTCTCCC
DNA 2: TGGTGGCTACGACGGGATT
B30: AGCAUCC (DNA:RNA)
RNA: B14 RNA with G25A, C26G, A27C, U28A, A30C
DNA 1: CAATCTGAATTCCGGTCTCCC
DNA 2: TGGTGGCTACGACGGGATT
B31: GGUUCCC (DNA:RNA)
RNA: B14 RNA with C26G, A27U, U29C, A30C
DNA 1: CAATCTGAATTCCGGTCTCCC
DNA 2: TGGTGGCTACGACGGGATT

The target in this test is T1, RBFOX1 RRM RbFoxmut (Fox-RRM*). Nature of the test: EMSA; HiTS-Eq, 1 nM pool, 10 min; buffer printed only for the single-RNA assays: 10 mM Tris pH 7.5, 150 mM NaCl, 3.4 mM EDTA, 0.001% NP-40, 30 C. Conditions: tags: His6 N-terminal (pET28a); label: 5' 32P. The procedure, abridged: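 Purified wild-type or mutant RbFox RRM at increasing concentrations was equilibrated with 1 nM of 5′-radiolabelled RNA carrying 7 randomized nucleotides for 10 min in 50 µL. Unbound RNA was separated by 8% native PAGE and sequenced. Relative association constants came from read-count changes of each RNA species compared with the control reaction, normalised to the cognate motif.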
Regarding B1, the binding signal was 0.162 KA relative to UGCAUGU.
In the case of B2, the binding signal was 0.0731 KA relative to UGCAUGU.
The figure for B3 is 0.0588 KA relative to UGCAUGU; for B4 it is 0.0754 KA relative to UGCAUGU; for B5 it is 0.237 KA relative to UGCAUGU.
The figure for B6 is 0.109 KA relative to UGCAUGU; for B7 it is 0.083 KA relative to UGCAUGU.
The figure for B8 is 0.095 KA relative to UGCAUGU; for B9 it is 0.0905 KA relative to UGCAUGU; for B10 it is 0.126 KA relative to UGCAUGU.
As to B11, the binding signal is 0.126 KA relative to UGCAUGU.
On to B12, for which the binding signal was 0.205 KA relative to UGCAUGU.
The same measure for B13: 0.093 KA relative to UGCAUGU.
The same measure for B14: 0.0935 KA relative to UGCAUGU; for B15: 0.0353 KA relative to UGCAUGU; for B16: 0.123 KA relative to UGCAUGU.
The same measure for B17: 0.139 KA relative to UGCAUGU; for B18: 0.205 KA relative to UGCAUGU; for B19: 0.106 KA relative to UGCAUGU.
With B20, the binding signal is 0.0816 KA relative to UGCAUGU.
The same measure for B21: 0.067 KA relative to UGCAUGU.
For the molecule B22, the binding signal is 0.12 KA relative to UGCAUGU.
The same measure for B23: 0.0774 KA relative to UGCAUGU; for B24: 0.0883 KA relative to UGCAUGU; for B25: 0.102 KA relative to UGCAUGU.
The figure for B26 is 0.0745 KA relative to UGCAUGU; for B27 it is 0.0866 KA relative to UGCAUGU.
The figure for B28 is 0.216 KA relative to UGCAUGU.
B29: the binding signal is 0.0738 KA relative to UGCAUGU.
The same measure for B30: 0.237 KA relative to UGCAUGU; for B31: 0.146 KA relative to UGCAUGU.
